Measurements taken from PubChem BioAssay AID504832 (National Center for Advancing Translational Sciences (NCATS), 2011).
Screen size: about 310,000 compounds; about 18,000 (5.8%) were called active. Inconclusive means that the source gave no clear call. Such entries were picked first, then a sample of the others. The call rests on the fitted dose curve; in most records, active means well fitted inhibition curve with a large enough effect; inconclusive means small, poorly fitted or top-dose-only effect, or another doubt; inactive means no such curve, though single readings can be large or run the other way. No potency is given beside an inconclusive call; the fits are too rough.

Assay: Primary qHTS for delayed death inhibitors of the malarial parasite plastid, 48 hour incubation
Conditions: P. falciparum luciferase growth in erythrocytes; series mostly up to 28.7 µM
Summary of the method: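 Luciferase-expressing P. falciparum in infected erythrocytes (2% hematocrit, 0.1% parasitemia final) in RPMI 1640/0.5% Albumax were exposed to compound for 48 hours at 37 C, 5% CO2; growth read as luminescence.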
Potency means the concentration at half of the fitted maximal effect; tags describe the fitted curve by direction and shape.

Question: With `Cn1c2cc(B(O)O)sc2c2cnn(Cc3c(F)cccc3F)c(=O)c21` as the compound, how does the Potency read?
Answer: inconclusive [inhibitor, single point]

Question: With `CC(Oc1ccc(C(=O)c2ccccc2)cc1)C(=O)Nc1ccc(S(N)(=O)=O)cc1` (configuration not stated) as the compound, how does the Potency read?
Answer: inconclusive [inhibitor, single point]

Question: With `CC(=O)Nc1cccc(NC(=O)c2ccccc2OCc2c(C)noc2C)c1` as the compound, how does the Potency read?
Answer: inconclusive [inhibitor, single point]

Question: For `COc1ccc(C)cc1NC(=O)CO/N=C(\N)CC(=O)NC1CCCCC1`, which Potency is on record?
Answer: inconclusive [inhibitor, partial curve, poor fit]

Question: Which Potency does the source give for `Cn1c(O)c(C=Nc2ccc(Br)cc2)c(=O)n(C)c1=O` here?
Answer: inactive

Question: With `CC(=O)Nc1ccc(S(=O)(=O)Nc2ccc(S(=O)(=O)Nc3nccs3)cc2)cc1` as the compound, how does the Potency read?
Answer: inactive

Question: With `CCN(CC)CCCNC(=O)c1cc(Nc2ccc(OC)cc2)nc2ccccc12` as the compound, how does the Potency read?
Answer: inconclusive [inhibitor, single point]

Question: For `COc1ccc(-c2n[nH]c(C)c2-c2ccc(Cl)cc2)c(O)c1`, which Potency is on record?
Answer: active: 8.28 µM

Question: Which Potency does the source give for `Cn1nc(-c2ccccc2)c(CN2CCN(c3ncccn3)CC2)c1Cl` here?
Answer: inconclusive [inhibitor, single point]

Question: Which Potency does the source give for `O=C(c1cn(-c2ccccc2)nc1-c1cccs1)N1CCOCC1` here?
Answer: inactive

Question: With `Cn1c(=O)c2cn(-c3cccc4ccccc34)cc2n(C)c1=O` as the compound, how does the Potency read?
Answer: inconclusive [inhibitor, partial curve, poor fit]

Question: With `CCOc1ccc(C2C=C(c3ccc(C)cc3)Nc3nnnn32)cc1` (configuration not stated) as the compound, how does the Potency read?
Answer: active: 8.28 µM

Question: For `CCOC(=O)COc1c(C(=O)OC)sc2ncccc12`, which Potency is on record?
Answer: inactive

Question: With `CC(=O)c1cccc(N(C(=O)Cn2nnc3ccccc32)C(C(=O)NCC2CCCO2)c2ccc(N3CCOCC3)cc2)c1` (configuration not stated) as the compound, how does the Potency read?
Answer: inactive

Question: With `Cc1ccc2nc(-c3ccc(NC(=O)CN4CCN(C(=O)c5ccco5)CC4)cc3)sc2c1` as the compound, how does the Potency read?
Answer: active: 2.33 µM

Question: For `COc1ccc(Nc2nc(-c3c[nH]c4ccccc34)cs2)cc1`, which Potency is on record?
Answer: inconclusive [inhibitor, single point]

Question: For `C/C(N)=C(/C#N)C(=O)COC(=O)COc1ccc(Cl)cc1`, which Potency is on record?
Answer: inactive

Question: With `Cc1ccc([N+](=O)[O-])cc1NC(=O)CN(C(=O)c1ccccc1Cl)C1CCCCC1` as the compound, how does the Potency read?
Answer: inconclusive [inhibitor, partial curve, poor fit]

Question: Which Potency does the source give for `O=C(CN1CCN(c2ccc(O)cc2)CC1)NC1CCCc2ccccc21` (configuration not stated) here?
Answer: inconclusive [inhibitor, partial curve]

Question: For `CCCCNC(=O)c1c[nH]c2ccc(S(=O)(=O)N3CCOCC3)cc2c1=O`, which Potency is on record?
Answer: inconclusive [inhibitor, single point]

Question: For `CS(=O)(=O)N1CCN(c2ccc(NC(=S)NC(=O)c3ccccc3[N+](=O)[O-])cc2)CC1`, which Potency is on record?
Answer: inactive

Question: Which Potency does the source give for `COc1ccc(OC)c2[nH]c(=O)c(CCNC(=O)c3ccc(S(=O)(=O)N4CCCCC4)cc3)cc12` here?
Answer: active: 9.28 µM

Question: With `C#CCOCCOCCOCCNc1nc(N2CCN(C(=O)CCCCCCCCCCNC(=O)[C@H](CCC(=O)O)n3cc(CCCCCN)nn3)CC2)nc(N2CCN(C(=O)CCCCCCCCCCNC(=O)[C@@H]([C@H](C)O)n3cc(C)nn3)CC2)n1` as the compound, how does the Potency read?
Answer: active: 3.29 µM

Question: Which Potency does the source give for `CC(C)(C)NC(=O)C(c1ccccc1)N(C(=O)c1csnn1)C1CC1` (configuration not stated) here?
Answer: inconclusive [inhibitor, full curve, poor fit]

Question: For `COc1ccc(Oc2nc3ccccc3n3cccc23)cc1`, which Potency is on record?
Answer: inactive

Question: For `CCN(CC)CCCN(c1ccccc1)C1Cc2ccccc2C1`, which Potency is on record?
Answer: active: 1.9 µM

Question: With `O=C(Nc1cccc(C(F)(F)F)c1)C12CC3CC(CC(C3)C1)C2` as the compound, how does the Potency read?
Answer: active: 13.1 µM

Question: With `O=[N+]([O-])c1ccc(/C=N/NS(=O)(=O)c2ccc(Cl)cc2)o1` as the compound, how does the Potency read?
Answer: inactive

Question: With `CC(=O)c1c(C)[nH]c(C(=O)N2CCN(S(=O)(=O)c3ccc(F)c(F)c3)CC2)c1C` as the compound, how does the Potency read?
Answer: inconclusive [inhibitor, partial curve, poor fit]

Question: For `CC(C)C1Cc2c(sc3ncnc(NN)c23)CO1` (configuration not stated), which Potency is on record?
Answer: inconclusive [inhibitor, single point]

Question: For `O=Cc1cn(CCOc2ccccc2)c2ccccc12`, which Potency is on record?
Answer: inactive

Question: For `COc1cc(C(=O)c2c(C)c(CCC#N)n3ccccc23)cc(OC)c1OC`, which Potency is on record?
Answer: active: 9.28 µM

Question: Which Potency does the source give for `Cc1cc(NC(=O)Cc2ccsc2)ccc1Br` here?
Answer: inactive

Question: For `Cc1cccc(/C=N/NC(=O)c2c(-c3ccccc3)noc2C)c1O`, which Potency is on record?
Answer: active: 9.28 µM

Question: Which Potency does the source give for `Cc1ccc(C(=O)C(C)CN2CCCCC2)cc1` (configuration not stated) here?
Answer: active: 13.5 µM

Question: Which Potency does the source give for `O=C(CCCCC(=O)NNC(=O)COc1ccccc1)NNC(=O)COc1ccccc1` here?
Answer: inactive

Question: With `CC(C)(C)c1ccc(C(=O)OCC(=O)Nc2sc3c(c2C#N)CCC3)cc1` as the compound, how does the Potency read?
Answer: inactive

Question: For `O=C(Nc1ccccc1F)N1CCC(NC(=O)C23CC4CC(CC(C4)C2)C3)CC1`, which Potency is on record?
Answer: inconclusive [inhibitor, partial curve]

Question: With `CC(=O)c1ccc(NC(=O)c2ccccc2Sc2ncnc3sc(C)c(C)c23)cc1` as the compound, how does the Potency read?
Answer: inconclusive [inhibitor, single point]

Question: Which Potency does the source give for `COc1ccc(C(=O)Nc2nc(-c3ccc(S(=O)(=O)N4CCOCC4)cc3)cs2)cc1` here?
Answer: inconclusive [inhibitor, single point]

Question: With `Cc1ccc(N2C(=O)C(CN3CCCC3)C2c2ccccc2)cc1` (configuration not stated) as the compound, how does the Potency read?
Answer: inconclusive [inhibitor, single point]

Question: Which Potency does the source give for `Cn1cccc1/C=N/NC(=O)C12CC3CC(CC(C3)C1)C2` here?
Answer: inactive

Question: Which Potency does the source give for `Cc1cccc(C)c1NC(=S)NCCc1ccccn1` here?
Answer: inconclusive [inhibitor, full curve, poor fit]

Question: Which Potency does the source give for `COCCC(=O)N1CCC(Oc2ccc(C(=O)NCCSC)cc2)CC1` here?
Answer: inactive

Question: Which Potency does the source give for `Cc1ccc(/C=C2\SC(=S)N(CCCC(=O)NNC(=O)c3ccccc3O)C2=O)cc1` here?
Answer: inconclusive [inhibitor, single point]

Question: For `Cc1cc(N/N=C/c2ccc(O)cc2O)c2ccccc2n1`, which Potency is on record?
Answer: inconclusive [inhibitor, full curve, poor fit]

Question: Which Potency does the source give for `CC(Sc1ncnc2sc(-c3ccccc3)cc12)C(=O)N1CCNC1=O` (configuration not stated) here?
Answer: inconclusive [inhibitor, single point]

Question: With `N#CCCN(C(=O)COC(=O)c1cc2ccccc2oc1=O)c1ccccc1` as the compound, how does the Potency read?
Answer: inactive

Question: For `CC(C)N(Cc1ccccc1)C(=O)/C=C/c1ccccc1[N+](=O)[O-]`, which Potency is on record?
Answer: active: 10.4 µM

Question: For `O=C(CSc1nc2ccccc2c2nc3ccccc3n12)NCc1ccco1`, which Potency is on record?
Answer: active: 9.28 µM

Question: With `O=[N+]([O-])c1ccc(NC(=S)NCC(c2cccnc2)N2CCOCC2)cc1` (configuration not stated) as the compound, how does the Potency read?
Answer: inactive

Question: For `COc1ccc2cc(CN(Cc3cccnc3)Cc3nnnn3Cc3ccccc3)c(=O)[nH]c2c1`, which Potency is on record?
Answer: inconclusive [inhibitor, single point]

Question: Which Potency does the source give for `O=C(NNC(=O)c1ccc(S(=O)(=O)N2CCCC2)cc1)c1ccc(Br)cc1` here?
Answer: inconclusive [inhibitor, single point]

Question: For `COc1cc(-c2noc(CCCC(=O)NC3CCCCC3)n2)cc(OC)c1OC`, which Potency is on record?
Answer: inconclusive [inhibitor, partial curve]

Question: Which Potency does the source give for `COc1cccc(CN2CCNC(=O)C2CC(=O)N(C)C2CCOCC2)c1` (configuration not stated) here?
Answer: inactive

Question: With `O=C(NC(=S)Nc1ccccc1N1CCN(C(=O)c2ccccc2)CC1)c1cccs1` as the compound, how does the Potency read?
Answer: inconclusive [inhibitor, partial curve]

Question: For `COc1cccc(-c2cc(C(F)(F)F)nc(NCc3ccco3)n2)c1`, which Potency is on record?
Answer: inconclusive [inhibitor, single point]

Question: Which Potency does the source give for `CN(CC(=O)Nc1ccccc1Br)C(=O)CNC(=O)c1ccc2c(c1)OCO2` here?
Answer: inactive

Question: For `Cc1c(C(=O)Nc2ccccc2Cl)oc2ccc(S(=O)(=O)N3CCC4(CC3)OCCO4)cc12`, which Potency is on record?
Answer: inconclusive [inhibitor, partial curve]

Question: With `O=C(CN1CCCCC1)Nc1nnc(-c2ccc([N+](=O)[O-])cc2)s1` as the compound, how does the Potency read?
Answer: inactive

Question: Which Potency does the source give for `CCOC(=O)C1=C(COC(=O)/C=C/c2ccc(C)o2)NC(=O)NC1C` (configuration not stated) here?
Answer: inconclusive [inhibitor, single point]

Question: With `COc1ccccc1C(C)NC(=O)CCOc1cccc(C)c1` (configuration not stated) as the compound, how does the Potency read?
Answer: inconclusive [inhibitor, single point]

Question: Which Potency does the source give for `COc1cccc(CNC(=O)c2cc(=O)[nH]c3ccc(S(=O)(=O)N4CCOCC4)cc23)c1` here?
Answer: inactive

Question: With `CCN(CC)CCCNC(=O)c1ccc2c(Cl)c3c(nc2c1)CCCC3` as the compound, how does the Potency read?
Answer: inactive

Question: For `C=C(C)CSc1nnc(-c2cccc(S(=O)(=O)N(C)C)c2)n1-c1cc(OC)ccc1OC`, which Potency is on record?
Answer: inconclusive [inhibitor, partial curve]

Question: With `COc1cc(/C=N/N2CCCCC2)cc([N+](=O)[O-])c1O` as the compound, how does the Potency read?
Answer: inactive

Question: With `CCCc1ccc(Oc2cn[nH]c2-c2ccc(O)cc2O)cc1` as the compound, how does the Potency read?
Answer: inconclusive [inhibitor, full curve]

Question: With `O=C(CNS(=O)(=O)c1ccc2c(c1)OCCCO2)N1CCN(c2ccc(F)cc2)CC1` as the compound, how does the Potency read?
Answer: inconclusive [inhibitor, partial curve, poor fit]

Question: With `CCC1CCCCN1CCCNC(=O)CCCOc1cc(=O)n(C)c2ccccc12` (configuration not stated) as the compound, how does the Potency read?
Answer: inactive

Question: With `CCCCn1c(-c2ccc(C(C)(C)C)cc2)nc2cc3[nH]c(=O)c(C(C)C)nc3cc21` as the compound, how does the Potency read?
Answer: inconclusive [inhibitor, single point]

Question: Which Potency does the source give for `COC(=O)[C@]1(C)CCC[C@@]2(C)C3CC[C@]4(OC(C)=O)C[C@@]3(CCC21)CC4=O` (some centres not stated) here?
Answer: inconclusive [inhibitor, single point]

Question: For `Cc1ccc(C(NC(=O)c2cccc(S(=O)(=O)N3CCN(C)CC3)c2)c2ccccc2)cc1` (configuration not stated), which Potency is on record?
Answer: active: 14.7 µM
